Results published in PMC4336329 (PLoS ONE, 2015).
About 14,000 (4.5%) of roughly 310,000 compounds showed an effect of 50% or more. Effects have a minus sign here. Some of the results follow.

Molecular target: human ether-à-go-go-related gene (hERG) potassium channel (human, UniProt Q12809)
Assay: primary screen, population patch clamp on CHO cells stably expressing hERG
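Note: peak tail current of the secondary pulse compared with the same well before compound.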

Chain of human ether-à-go-go-related gene (hERG) potassium channel (Q12809 whole entry, looked up): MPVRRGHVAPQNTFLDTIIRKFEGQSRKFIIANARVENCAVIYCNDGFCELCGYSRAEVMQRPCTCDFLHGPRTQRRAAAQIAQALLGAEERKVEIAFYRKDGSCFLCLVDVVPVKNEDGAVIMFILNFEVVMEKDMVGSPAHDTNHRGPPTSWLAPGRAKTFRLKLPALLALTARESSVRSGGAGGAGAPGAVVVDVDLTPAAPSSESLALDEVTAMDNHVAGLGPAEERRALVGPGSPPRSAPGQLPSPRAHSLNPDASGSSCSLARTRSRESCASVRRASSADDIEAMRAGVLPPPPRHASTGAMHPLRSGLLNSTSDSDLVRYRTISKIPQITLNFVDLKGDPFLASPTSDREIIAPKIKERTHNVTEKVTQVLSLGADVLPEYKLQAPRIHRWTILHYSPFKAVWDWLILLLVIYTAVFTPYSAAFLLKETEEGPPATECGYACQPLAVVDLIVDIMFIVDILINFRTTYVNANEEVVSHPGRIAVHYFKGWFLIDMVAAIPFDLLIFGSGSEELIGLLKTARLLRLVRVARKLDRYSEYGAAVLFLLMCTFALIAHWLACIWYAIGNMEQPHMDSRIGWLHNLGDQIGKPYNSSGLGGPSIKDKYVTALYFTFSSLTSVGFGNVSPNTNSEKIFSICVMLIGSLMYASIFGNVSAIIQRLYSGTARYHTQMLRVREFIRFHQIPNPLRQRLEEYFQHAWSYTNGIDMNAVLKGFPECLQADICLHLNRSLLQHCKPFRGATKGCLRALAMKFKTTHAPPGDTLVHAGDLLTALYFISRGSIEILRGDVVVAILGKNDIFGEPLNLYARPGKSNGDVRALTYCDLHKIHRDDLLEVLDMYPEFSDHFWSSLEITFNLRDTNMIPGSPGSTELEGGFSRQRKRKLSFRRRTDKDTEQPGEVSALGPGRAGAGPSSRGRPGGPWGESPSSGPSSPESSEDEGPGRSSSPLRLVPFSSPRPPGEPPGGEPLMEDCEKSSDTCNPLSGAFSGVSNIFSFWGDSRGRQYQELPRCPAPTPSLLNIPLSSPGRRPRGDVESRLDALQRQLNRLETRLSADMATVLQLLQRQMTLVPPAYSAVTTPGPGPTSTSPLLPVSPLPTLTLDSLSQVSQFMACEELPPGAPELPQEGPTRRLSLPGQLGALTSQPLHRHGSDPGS

SMILES | hERG current change (%, negative = inhibition) at 10uM [%]
COc1ccc(N2CCN(CCNC(=O)C3CCN(S(=O)(=O)c4cccs4)CC3)CC2)cc1 | -50.7
Cc1ccc(NC(=O)c2cccs2)cc1[N+](=O)[O-] | 3.32
O=C(NCCCN1CCOCC1)c1c(O)c2cc(Br)cc(Br)c2[nH]c1=O | -64.6
CN(Cc1ccccn1)Cc1nc(-c2ccc(Cl)cc2)no1 | -14.6
Cc1ccccc1C1c2[nH]c3ccccc3c2CCN1CCCn1cccn1 (stereo not drawn) | -20.3
CCC(=NCc1ccco1)c1c(O)n(Cc2ccccc2)c(=O)[nH]c1=O | -29.7
COc1ccc(N2CCN(C(=O)c3ccc(CS(=O)(=O)c4ccc(OC)cc4)o3)CC2)cc1 | -64.7
CC(=O)N(/N=C1/C(=O)Nc2ccccc21)c1ccccc1 | 27.3
CCN1CCN(C(=O)c2cc(S(=O)(=O)Nc3ccc(S(C)(=O)=O)cc3)ccc2Cl)CC1 | 14.2
CCCCS(=O)(=O)N1CCC(C(=O)NCC2CCCO2)CC1 (stereo not drawn) | 15.3
CC(C)NC(=S)NC(c1ccccc1)(c1ccccc1)c1ccccc1 | 18.1
Cc1cccc(-n2ncc3c(N4CCC5(CC4)OCCO5)ncnc32)c1 | 8.75
CCc1cccc(CC)c1NC(=O)c1ccccc1CCc1ccccc1 | 9.55
CCCc1cc(=O)[nH]c(SC(CC)C(=O)Nc2ccccc2C#N)n1 (stereo not drawn) | -15
COc1cc(OC)cc(C(=O)N[C@H](C(=O)OCc2cc(=O)oc3cc(C)ccc23)C(C)C)c1 | -19
O=C(CSc1nnnn1-c1ccccc1)CSc1nnnn1-c1ccccc1 | -12.2
Cc1ccc(N2C(=O)CC(NNC(=O)Cc3ccc(F)cc3)C2=O)cc1Cl (stereo not drawn) | 3.26
Cc1ccccc1OCC(=O)OCC(=O)Nc1ccc(S(N)(=O)=O)cc1 | -6.13
COc1cc(/C=C(\C#N)C(=O)Nc2cccc3ncccc23)cc(OC)c1OC.Cl | 9.48
O=C(CCN1C(=O)[C@@H]2Cc3ccccc3CN2C1=O)N[C@H](Cc1ccccc1)C(=O)O | 7.87
CCN1CCN(c2ccc(S(=O)(=O)N3CCOCC3)cc2NC(=O)C(C)Oc2ccc(F)cc2)CC1 (stereo not drawn) | -57.4
COC(=O)C1=C(C)N(CCc2ccc(OC)cc2)C(=O)C1 | -20.9

SMILES | hERG current change (%, negative = inhibition) at 10uM [%]
Cc1ccc(O)c(C2=NCCNC(C(F)(F)F)=C2)c1 | 3.37
CCOc1cc(/C=C2\SC(=NC)N(C)C2=O)c(Br)cc1OC(C)=O | 19.8
Cc1ccc(S(=O)(=O)Nc2ccc(O)c(Sc3ncn[nH]3)c2)cc1 | 19.9
O=C(COC(=O)c1cncc(Br)c1)NCc1ccc(F)cc1 | 12.9
O=C1CC(c2ccco2)CC(O)=C1C=Nc1cc(Cl)cc(Cl)c1 (stereo not drawn) | -12.8
CN(C)S(=O)(=O)c1cccc(NC(=O)CO/N=C(\N)c2ccccc2)c1 | -0.0551
COC(=O)c1ccccc1NC(=O)CN1CCOCC1 | 5.86
CCC(=O)N1CCN(c2ccc(NC(=S)NC(=O)c3cccc([N+](=O)[O-])c3)cc2)CC1 | 2.13
O=C(c1cc2n(n1)C(C(F)(F)F)CC(c1ccco1)N2)N1CCN(c2ccccn2)CC1 (stereo not drawn) | -3.66
O=C(NCC(=O)N1CCN(S(=O)(=O)c2ccccc2F)CC1)c1ccc2ccccc2c1 | -12.2
CCCC1Nc2ccc(C(=O)O)cc2C2C=CCC12 (stereo not drawn) | -6.86
CC(C)n1cc(CNC(=O)C2CCC(=O)N(Cc3ccccc3F)C2)cn1 (stereo not drawn) | 12.7
CCC(C)c1ccc(NC(=S)NCCn2cc(Br)cn2)cc1 (stereo not drawn) | 5.94
COc1cccc(N=c2oc3ccc(OC)cc3cc2-c2nc3ccccc3[nH]2)c1 | 17.2
Cc1ccc2nc(-c3ccccc3)oc(=O)c2c1 | 8.48
O=C(Cc1ccccc1)Nc1cccc(N2CCCC2)c1 | 6.07
O=C1CN(C(=S)Nc2ccccc2Cl)CCN1 | 22.5
CN1CCCCC1CCN1c2ccccc2Sc2ccc(S(C)=O)cc21.O=S(=O)(O)c1ccccc1 (stereo not drawn) | -56
O=C(CN1CCOCC1)N/N=C/c1ccc(-c2cccc(Cl)c2Cl)o1 | -73.4
NC(=O)C1CCN(CC(O)COc2ccc(-c3ccccc3)cc2)CC1 (stereo not drawn) | -34.4
O=S(=O)(c1ccccc1)N1CCN(C2CCN(Cc3ccccc3)CC2)CC1 | -64
CC(=O)c1nc(N2C(=O)CC(Cc3cccc(C)c3)C2=O)sc1C (stereo not drawn) | -16.3

SMILES | hERG current change (%, negative = inhibition) at 10uM [%]
CC1Cc2ccccc2N1C(=O)c1cccnc1 (stereo not drawn) | -9.95
CC(C)=CCOc1ccc2c(C)c(CC(=O)N3C[C@H]4C[C@@H](C3)c3cccc(=O)n3C4)c(=O)oc2c1C | -57.3
COCC(=O)OCC(=O)c1cc(C)n(-c2ccc(Br)cc2)c1C | 6.71
O=C(O)C1CCCCC1C(=O)Nc1ccccc1Nc1ccccc1 (stereo not drawn) | -2.1
COc1ccccc1-c1nnc(SCC(=O)Nc2ccc(N3CCOCC3)cc2)n1C | -8.3
COc1ccc(CCNC(=O)CNC(=O)Cn2ccc3ccccc3c2=O)cc1OC | 8.51
Cc1ccc(NC(=O)CN2C(=S)NC(C)(C)CC2C)cc1Cl (stereo not drawn) | 10.8
Cc1cc2c(n1-c1ccc(C(N)=O)cc1)CC(C)(C)CC2=O | 5.21
CCOC(=O)N1CCC(N2C(=O)c3ccccc3C2Nc2cc(C(=O)OC)cc(C(=O)OC)c2)CC1 (stereo not drawn) | -17.5
CCCCOc1ccccc1NC(=O)CC1SC(=NCC)N(CC)C1=O (stereo not drawn) | 3.4
CC(/C=N/NC(=O)CCn1nnc2ccccc21)=C\c1ccccc1 | 21.7
Cc1cccc(C(=O)Nc2cc(Cl)ccc2-n2cncn2)c1[N+](=O)[O-] | -3.19
Cc1ccc(-c2nn(C)c(=O)c3ccccc23)cc1CNC(=O)CSc1nc2ccccc2o1 | -21.5
NC(=O)c1ccc(-c2csnn2)cc1 | -1.16
O=C(N1CCOCC1)N(CCN1CCOCC1)Cc1cccc(Cl)c1 | 1.45
Cn1c(=O)c2c(-c3ccccc3)n(Cc3cccnc3)cc2n(C)c1=O | 1.59
O=C(O)CCC(=O)N1CCc2cc(S(=O)(=O)NCCc3ccc(Cl)cc3)ccc21 | 12.4
Cc1ccc(C(C)(C)NC(=O)C2CCC(=O)N(Cc3ccccc3F)C2)cc1 (stereo not drawn) | 20.4
COc1cccc(-c2csc(N3CCN(C(=O)Nc4ccc(F)cc4)CC3)n2)c1 | -15.7
CNc1cc(C)c(C#N)c2nc3ccccc3n12 | -8.75
CCOc1ccc(N(CC(=O)N2CCC(Cc3ccccc3)CC2)S(C)(=O)=O)cc1 | -7.78
Cc1ccc(C)c(OCC(=O)Nc2cc(C)on2)c1 | -2.17

SMILES | hERG current change (%, negative = inhibition) at 10uM [%]
COc1ccc(C(=O)Nc2ccnn2C2CCN(C(=O)CCC(F)(F)F)CC2)cc1 | 20.3
CCOc1ccc(CN2CCN(Cc3c(C)nn(CC)c3C)CC2CCO)cc1 (stereo not drawn) | -45
O=C(NCc1cccs1)C(NS(=O)(=O)c1cccc2nsnc12)c1ccccc1 (stereo not drawn) | -15.3
COc1ccc(S(=O)(=O)N2CCN(Cc3ccc(Cl)cc3)CC2)cc1 | -10.8
CCOC(=O)C1CCN(c2c(NCCCN(CC)c3ccccc3)c(=O)c2=O)CC1 | -19.9
O=C(COC(=O)c1ccc(Cl)nc1)c1ccc2c(c1)OCCO2 | 8.63
O=C(CN1C(=O)CSC1=O)Nc1ccc(C(=O)O)cc1 | 8.07
Cc1ccc(S(=O)(=O)NCC(=O)NC2CC2)cc1 | 13.5
Cc1ccc(C)c(C(=O)CSc2nnc(C)s2)c1 | 5.28
O=C(CCC(=O)c1cccs1)OCC(=O)N1CCN(C(=O)c2ccco2)CC1 | -2.34
CC(C)C[C@H](NC(=O)[C@H](Cc1ccccc1)n1c(=O)[nH]c2ccccc2c1=O)C(=O)N1CCC[C@H]1C(=O)O | 6.16
Cc1nnc(SCc2ccccc2CSc2nnc(C)s2)s1 | -6.01
O=C1CC2(CCCC2)Oc2ccc(F)cc21 | -8.58
COc1cccc(N=Nc2c(N)[nH]n3c(=O)c4c(nc23)CCCC4)c1 | 12.2
COc1ccc(Cl)cc1C(=O)n1cnc2ccccc21 | 11.8
Cc1cccc(-n2ncc3c2CCCC3NC(=O)c2ccc[n+]([O-])c2)c1C (stereo not drawn) | 7.99
C=CCn1c(SCc2cc(=O)n3cc(C)ccc3n2)nnc1-c1cccc(C)c1 | -35.4
Cc1c(Cl)cccc1NC(=O)CC1Oc2ccccc2NC1=O (stereo not drawn) | 16.5
Cc1cccc(C)c1OCC(O)Cn1nnc2ccccc21 (stereo not drawn) | 1.01
CCCOc1ccc2ccccc2c1/C=N/n1c(C)nnc1-n1nc(C)cc1C | -6.5
CCOc1ccc(Nc2nc3ccccc3n3nnnc23)cc1 | 7.32
